Reference: the supplement of paper PMC12217912
The list shows a part of the results. Sequences were assembled here from the parent chain. Values near 0.05 are background.

B1: TEV protease; numbered along this chain (parent)
chain: MGESLFKGPRDYNPISSSICHLTNESDGHTTSLYGIGFGPFIITNKHLFRRNNGTLVVQSLHGVFKVKDTTTLQQHLVDGRDMIIIRMPKDFPPFPQKLKFREPQREERICLVTTNFQTKSMSSMVSDTSCTFPSGDGIFWKHWIQTKDGQCGSPLVSTRDGFIVGIHSASNFTNTNNYFTSVPKNFMELLTNQEAQQWVSGWRLNADSVLWGGHKVFMVKPEEPFQPVKEATQL

Variants of: B1
Assay: raw area under fraction-flipped curve 0-4 h after induction (AUC4h, not background-subtracted), DNA-recorder readout of cleavage of the substrate (dimensionless); higher = more cleavage of the substrate by the protease variant
Settings: temperature: 34 °C; time window: 0-4 h after rhamnose induction
Method: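 In vivo DNA recorder in E. coli TOP10(DE3) ΔrhaA at 34 °C. Each TEVp single-site mutant (parent TEVp 0) is paired with a single-site variant of the 7-mer TEVs (canonical ENLYFQ|S). The substrate sits between flexible linkers in a Bxb1-sfGFP-TEVs-SsrA fusion, so cleavage stabilises Bxb1 and speeds flipping of a recombination array, read by NGS. The value is the raw area under the fraction-flipped curve over 0-4 h after rhamnose induction (AUC4h), with ≥20 reads per time point. It is not background-subtracted; inactive controls average about 0.047.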
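Note: Bxb1 expression induced with 0.2% (w/v) L-rhamnose at OD600 near 0.5, cultures sampled hourly, flipped fraction per protease–substrate barcode pair counted by paired-end Illumina sequencing.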

Variant | area with substrate CNLYFQS | area with substrate DNLYFQS | area with substrate GNLYFQS | area with substrate HNLYFQS | area with substrate INLYFQS | area with substrate KNLYFQS | area with substrate MNLYFQS | area with substrate PNLYFQS | area with substrate TNLYFQS | area with substrate VNLYFQS | area with substrate WNLYFQS | area with substrate YNLYFQS | area with substrate LNLYFQS | area with substrate NNLYFQS | area with substrate SNLYFQS | area with substrate FNLYFQS | area with substrate RNLYFQS | area with substrate QNLYFQS
F180G | 0.066 | 0.0668 | 0.0565 | 0.052 | 0.0591 | 0.0623 | 0.0533 | 0.0515 | 0.0549 | 0.0541 | 0.0439 | 0.0565 |  |  |  |  |  | 
F180W | 0.0529 | 0.117 | 0.0576 | 0.0577 |  | 0.0631 |  | 0.0611 | 0.0548 |  | 0.0701 |  | 0.0457 | 0.0606 |  |  |  | 
T181P | 0.0477 | 0.0581 |  | 0.0573 | 0.0596 | 0.0575 | 0.0574 |  | 0.0579 | 0.0551 | 0.0591 | 0.0534 | 0.055 |  | 0.0322 |  |  | 
S182K | 0.0569 | 0.0504 |  |  | 0.0581 | 0.0724 |  | 0.0773 | 0.0649 | 0.054 | 0.0609 | 0.0583 | 0.0633 | 0.0594 | 0.0491 | 0.0554 | 0.0728 | 
S182N | 0.0619 | 0.067 |  | 0.0523 |  |  |  | 0.0617 | 0.051 | 0.0503 | 0.076 | 0.0442 | 0.0511 | 0.0615 | 0.0512 |  | 0.0617 | 0.0611
V183L | 0.0632 | 0.0673 |  | 0.0684 |  |  |  | 0.1 |  | 0.0584 | 0.0545 | 0.0528 |  | 0.0567 | 0.0557 |  | 0.0589 | 
V183N | 0.0726 | 0.069 | 0.0584 |  | 0.0525 |  |  |  | 0.0648 |  |  | 0.0504 |  |  | 0.0624 |  |  | 0.0765
V183R | 0.047 | 0.0587 |  | 0.0439 | 0.0364 | 0.0473 |  |  |  |  | 0.0399 |  | 0.0562 | 0.045 |  |  |  | 
P184M | 0.0719 |  | 0.0518 | 0.0586 | 0.061 |  | 0.0623 |  | 0.0595 | 0.062 | 0.0846 | 0.0369 | 0.0515 | 0.0617 |  | 0.0739 |  | 
N186P | 0.0619 | 0.0794 |  | 0.0328 | 0.0528 |  | 0.0681 | 0.0551 | 0.0742 |  |  |  | 0.0262 |  |  | 0.0478 |  | 
M188E | 0.0788 | 0.071 | 0.0747 | 0.0731 | 0.0674 | 0.0715 |  | 0.07 | 0.051 |  | 0.0591 |  |  | 0.0743 |  |  |  | 
M188W | 0.0429 | 0.063 | 0.0724 | 0.0718 | 0.0617 | 0.0667 | 0.0668 | 0.0534 | 0.0554 | 0.0635 | 0.0581 | 0.0683 | 0.0567 |  | 0.0588 | 0.0606 |  | 
E189A | 0.0625 | 0.0867 |  | 0.0809 |  | 0.0481 | 0.0563 |  |  | 0.0615 | 0.0592 |  |  |  |  |  |  | 
E189M | 0.066 | 0.0694 | 0.0667 | 0.0669 | 0.0648 | 0.0651 |  | 0.0757 | 0.0574 |  | 0.0568 | 0.0636 | 0.0623 |  | 0.0545 | 0.0427 | 0.057 | 
L190H | 0.0662 | 0.0843 |  | 0.0595 | 0.0594 | 0.0771 | 0.0542 | 0.0646 | 0.0611 | 0.07 |  |  | 0.0633 |  | 0.0651 | 0.0476 |  | 0.0669
L190R | 0.0784 | 0.0729 |  | 0.065 | 0.041 |  | 0.0624 |  |  | 0.0531 | 0.0416 | 0.0731 | 0.0635 | 0.0665 | 0.0613 |  |  | 
L191D | 0.0486 | 0.0603 |  | 0.0612 | 0.0552 | 0.0713 |  |  | 0.0538 |  | 0.0484 | 0.0616 | 0.0467 |  | 0.0649 | 0.0578 |  | 
L191G | 0.0633 | 0.0574 | 0.0703 | 0.0293 | 0.05 | 0.0541 | 0.0446 | 0.06 |  |  | 0.0634 |  | 0.0511 | 0.0461 | 0.0536 | 0.0477 |  | 0.0537
L191M | 0.0801 | 0.0741 | 0.065 | 0.0601 | 0.0777 | 0.0657 | 0.0644 | 0.0612 | 0.0485 | 0.0784 | 0.0522 | 0.0584 | 0.0534 | 0.0554 | 0.0558 | 0.0509 |  | 
T192A | 0.0832 |  |  |  |  |  |  | 0.062 | 0.0801 | 0.0787 | 0.0641 | 0.0559 | 0.0551 |  | 0.0603 | 0.0691 |  | 
N193G | 0.0606 | 0.0705 |  | 0.073 |  |  |  | 0.083 |  |  | 0.0667 | 0.0504 | 0.0543 |  | 0.0725 |  |  | 
N193T | 0.0646 | 0.0573 |  | 0.0701 | 0.0616 | 0.0635 |  | 0.0622 | 0.0736 | 0.0709 | 0.0587 |  |  | 0.0537 |  |  | 0.0617 | 
Q194L | 0.0741 | 0.0729 |  | 0.0671 | 0.0752 | 0.0725 | 0.0673 | 0.0562 | 0.0651 |  | 0.0558 |  |  |  |  | 0.0718 |  | 0.0565
Q194T | 0.0599 | 0.116 | 0.0602 | 0.0782 |  | 0.12 |  | 0.0596 | 0.0534 | 0.0753 | 0.0507 | 0.0657 | 0.0731 | 0.075 |  | 0.0886 |  | 0.0749
E195M | 0.0025 | 0.0671 | 0.0729 | 0.0618 | 0.0542 |  |  |  | 0.0614 |  | 0.0627 |  | 0.0594 | 0.076 |  |  |  | 
A196E | 0.0661 | 0.0864 | 0.0834 | 0.0542 | 0.0876 | 0.0773 |  | 0.0682 | 0.0646 | 0.0795 | 0.0572 | 0.0589 | 0.0283 | 0.0865 | 0.0718 | 0.069 | 0.0568 | 0.072
A196K | 0.0682 | 0.0803 | 0.0729 | 0.0682 | 0.0625 | 0.0908 | 0.0827 | 0.0687 | 0.0626 | 0.0473 | 0.061 | 0.0548 | 0.0646 | 0.0788 | 0.0657 | 0.0658 | 0.0585 | 
Q198C | 0.0593 | 0.069 |  |  |  | 0.0707 |  | 0.064 |  |  | 0.0505 | 0.0579 | 0.0672 |  | 0.0569 | 0.0559 |  | 0.0619
Q198D | 0.0656 | 0.0897 | 0.064 | 0.0532 |  | 0.0332 | 0.0861 |  | 0.0603 |  | 0.0423 | 0.0643 | 0.0683 | 0.0574 | 0.051 | 0.0597 |  | 
